Assay results published in patent publication US20230270857A1.

Target: CD3 on ex vivo expanded human T cells (Homo sapiens) (UniProt P07766)
Assay: flow cytometry referenced to quantum beads; 0.05 to 5 µg/10^6 cells of BsAb

BsAb molecules bound per T cell (ABC) (molecules per T cell) (arming dose 0.05 µg/10^6 cells): 600
BsAb molecules bound per T cell (ABC) (molecules per T cell) (arming dose 5 µg/10^6 cells): 20400
Substance: HER2-BsAb (trastuzumab x huOKT3, IgG-[L]-scFv format) (bispecific antibody)

Some values that stand alone complete this part of the results.
